Among all 310,000 compounds or so, about 14,000 (4.5%) showed an effect of 50% or more. The effect is printed as a negative number. Some of the results follow.
Target: human ether-à-go-go-related gene (hERG) potassium channel (human, UniProt Q12809)
Assay: primary screen, population patch clamp on CHO cells stably expressing hERG
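Further: peak tail current of the secondary pulse compared with the same well before compound.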

human ether-à-go-go-related gene (hERG) potassium channel, sequence (Q12809 whole entry, looked up): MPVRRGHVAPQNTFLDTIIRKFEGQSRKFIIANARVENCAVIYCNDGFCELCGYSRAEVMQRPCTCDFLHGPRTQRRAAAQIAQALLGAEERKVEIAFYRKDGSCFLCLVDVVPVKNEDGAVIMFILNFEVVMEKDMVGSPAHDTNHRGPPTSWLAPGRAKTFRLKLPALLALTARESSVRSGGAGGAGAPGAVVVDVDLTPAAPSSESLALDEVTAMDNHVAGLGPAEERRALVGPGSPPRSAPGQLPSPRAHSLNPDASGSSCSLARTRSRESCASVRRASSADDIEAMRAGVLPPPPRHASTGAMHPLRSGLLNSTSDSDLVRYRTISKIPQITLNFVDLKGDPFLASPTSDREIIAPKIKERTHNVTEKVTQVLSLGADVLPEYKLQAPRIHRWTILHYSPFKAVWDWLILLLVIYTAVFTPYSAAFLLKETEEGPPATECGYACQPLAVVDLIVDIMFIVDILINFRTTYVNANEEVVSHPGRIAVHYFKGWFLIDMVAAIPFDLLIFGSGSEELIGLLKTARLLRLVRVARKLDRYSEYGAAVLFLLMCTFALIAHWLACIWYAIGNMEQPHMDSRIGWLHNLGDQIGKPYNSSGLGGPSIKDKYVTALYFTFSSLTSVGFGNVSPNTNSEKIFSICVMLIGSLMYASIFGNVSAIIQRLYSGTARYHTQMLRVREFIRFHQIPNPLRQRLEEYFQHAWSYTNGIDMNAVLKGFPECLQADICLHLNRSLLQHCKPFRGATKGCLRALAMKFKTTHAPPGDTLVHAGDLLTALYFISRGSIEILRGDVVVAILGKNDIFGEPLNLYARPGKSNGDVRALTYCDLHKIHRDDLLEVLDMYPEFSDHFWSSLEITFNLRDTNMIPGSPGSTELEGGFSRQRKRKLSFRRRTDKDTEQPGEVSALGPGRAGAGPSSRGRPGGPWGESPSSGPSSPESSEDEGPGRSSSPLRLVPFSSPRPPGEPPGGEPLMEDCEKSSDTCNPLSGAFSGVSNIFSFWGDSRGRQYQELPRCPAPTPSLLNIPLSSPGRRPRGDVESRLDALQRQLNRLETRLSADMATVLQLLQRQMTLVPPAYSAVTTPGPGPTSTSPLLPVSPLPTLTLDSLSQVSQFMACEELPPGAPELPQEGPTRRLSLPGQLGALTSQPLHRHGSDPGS

In order of rising “hERG current change (%, negative = inhibition) at 10uM” value:
1. CCN(CC)C(=O)c1cc2c(=O)c3cc(Cl)ccc3oc2nc1C  -66.1%
2. O=C(NC1CCCCC1)C(c1ccc(O)cc1)N(CC1CCCO1)C(=O)C1COc2ccccc2O1 (stereo not shown)  -29.4%
3. COc1ccccc1N1CCN(CCN(C(=O)C2CCCCC2)c2ccccn2)CC1.O=C(O)/C=C\C(=O)O  -27.4%
4. CC(C(=O)NCC1CCCCC1)N1CCN(S(=O)(=O)/C=C/c2ccccc2)CC1 (stereo not shown)  -26.7%
5. CCN(c1ccc(C(O)(C(=O)OC)C(F)(F)F)cc1)S(=O)(=O)c1ccccc1 (stereo not shown)  -24.4%
6. Cc1cccc(C)c1NC(=O)c1cccc(C(=O)Nc2c(C)cccc2C)n1  -24.2%
7. O=C(NCCc1ccccn1)C(F)(F)C(F)(F)C(F)(F)C(F)(F)C(F)(F)C(F)F  -23.9%
8. CCCOc1cccc(C(=O)Nc2cccnc2)c1  -23.1%
9. CCOC(=O)c1ccccc1NC(=O)CN(c1ccccc1OCC)S(C)(=O)=O  -23%
10. CCN(CC)c1ccc(/C=N/NC(=O)c2ccc3nc[nH]c3c2)cc1  -22%
11. N#C/C(=N\Nc1ccccc1)C(=N)N1CCCCC1  -21.6%
12. CCOC(=O)c1cnc(SCC(C)C)nc1N  -21%
13. CCn1c(CCC(=O)Nc2nc3c(s2)CCCC3)nc2cc(S(=O)(=O)N(C)C)ccc21  -20.4%
14. O=C1CC(SCCc2nc3ccccc3[nH]2)C(=O)N1c1ccc(F)c(Cl)c1 (stereo not shown)  -20%
15. CCC(=O)c1ccc(OCC(=O)N2CCN(c3ncccn3)CC2)cc1  -17.1%
16. O=C(OCC(=O)N(Cc1ccccc1)Cc1ccccc1)c1ccccc1NCCO  -15.4%
17. O=C(Nc1ccc(Cl)cc1)C(c1ccccc1)N(CCO)CCO (stereo not shown)  -12.5%
18. COc1ccc(CNC(=O)CCn2ccc3cc(S(=O)(=O)N4CCCC4)ccc32)cc1  -12.4%
19. O=C(Nc1ccnn1C1CCN(Cc2ccccc2OC(F)F)CC1)c1cccnc1  -12.3%
20. COc1ccc(OCC(=O)Nc2c(C)ccc3nsnc23)cc1  -10.9%
21. O=C1C2(c3ccccc3)CN(CCO)CC1(c1ccccc1)CN(CCO)C2  -10.6%
22. CN(CC(=O)Nc1ccccc1Br)C(=O)c1cc([N+](=O)[O-])ccc1N1CCOCC1  -10.6%
23. O=C1CCCc2c1cc(C(=O)NCc1ccco1)c(=O)n2-c1ccccc1  -10.3%
24. CCCn1c(CNC(=O)c2cccs2)nc2ccccc21  -9.94%
25. CCOc1cc2c(cc1OCC)-n1cccc1C(c1ccc(C(C)C)cc1)NC2.Cl (stereo not shown)  -9.2%
26. Cn1c(CCCOc2ccc(Cl)cc2Cl)n[nH]c1=S  -8.86%
27. COc1ccc(S(=O)(=O)Nc2ccc(Cl)cn2)cc1  -8.53%
28. C/C=C(/C)C(=O)O[C@@H]1c2c(ccc3ccc(=O)oc23)OC(C)(C)[C@@H]1OC(=O)/C(C)=C\C  -8.07%
29. Cc1ccc(OCC(=O)Nc2cccc(S(=O)(=O)N3CCOCC3)c2)c([N+](=O)[O-])n1  -7.93%
30. COc1ccc(N2CCN(CC(=O)Nc3ccccc3SC)CC2)cc1  -5.77%
31. Cc1c(N2C(=O)CS/C2=N\N=C\c2ccccc2O)c(=O)n(-c2ccccc2)n1C  -4.5%
32. CC(C)CCNC(=O)C1C2C=CC3(CN(Cc4ccccc4Cl)C(=O)C13)O2 (stereo not shown)  -4%
33. CC(C)C(C(=O)Nc1ccc2c(c1)OCCO2)N1C(=O)c2ccccc2C1=O (stereo not shown)  -3.49%
34. CCCC(=O)N1CCN(C2=NS(=O)(=O)c3ccccc32)CC1  -3%
35. Cc1ccnc(NC(=O)c2ccc([N+](=O)[O-])o2)c1  -2.85%
36. O=c1cc(C(O)C[N+](=O)[O-])occ1OCc1ccccc1 (stereo not shown)  -2.17%
37. O=C(CSc1ncn[nH]1)Nc1ccc2c(c1)CCC2  -1.56%
38. Cc1cc(NC(=O)c2ccc(Cl)cc2)n(-c2ccccc2)n1  -1.41%
39. CCOC(=O)N1CCN(C(=O)c2nn(-c3cc(OC)cc(OC)c3)c(=O)c3ccccc23)CC1  -1.03%
40. CC(=O)N(c1ccccc1C)S(=O)(=O)c1ccc(Cl)cc1  -0.53%
41. Cc1nn(C(=O)c2cc([N+](=O)[O-])ccc2Cl)c(C)c1Br  -0.31%
42. Cc1ccc(S(=O)(=O)N2CCSC2=Nc2ccccc2)cc1  0.53%
43. CCCCn1c(N)c(Sc2ccc(C)cc2)c(=O)[nH]c1=O  2%
44. Cc1ccccc1C(=O)c1cccn1CC(=O)NC1CCCC(C)C1C (stereo not shown)  2.14%
45. O=C(Cn1cc(C(F)(F)F)ccc1=O)NCCc1ccc(Cl)cc1Cl  2.44%
46. COCc1nnc(NC(=O)c2sc3ccccc3c2Cl)s1  2.52%
47. CC(C)c1ccc(NC(=O)[C@@H]2CCC(=O)N2C2OC(=O)c3ccccc32)cc1 (stereo partly shown)  2.65%
48. CCCOc1ccc(-c2c(=O)n(OCc3ccc([N+](=O)[O-])cc3)c3ccccc3[n+]2[O-])cc1  2.68%
49. CCN(CC)C(=O)c1[nH]cnc1C(=O)Nc1ccc(C)cc1  2.75%
50. CCOC(=O)N1CCC(n2c(=S)[nH]c3ccccc3c2=O)CC1  3.38%
51. COc1ccc(-c2nnc(NC(=O)CS(=O)(=O)c3ccc(F)cc3)o2)cc1  4.02%
52. Cc1cccc(N/C=C/C(=O)c2cccs2)c1C  5.04%
53. O=C(Nc1ccc(Cl)cn1)Nc1ccccc1Cl  6.16%
54. COc1ccc(S(=O)(=O)Nc2cc3c4c(c2)C(C)C(=O)N4CCC3)cc1OC (stereo not shown)  6.27%
55. CN1C(=O)C(CC(=O)Nc2ccccc2F)N(NC(=O)c2ccc(Br)cc2)C1=S (stereo not shown)  6.5%
56. COc1ccc(O)c(/C=N/NC(=O)c2ccc(CSc3nc(C)cc(C)n3)cc2)c1  6.93%
57. CC(C)Cc1ccc([C@H](C)C(=O)O)cc1  7.11%
58. Cc1ccc(C2(C(F)(F)F)NC(=O)N3N=C4CCCCCN4C3=C2C#N)cc1 (stereo not shown)  7.51%
59. CN1C2C=C3C(C#N)=C(N)C(C#N)(C#N)[C@@H](c4cccc(F)c4)[C@@H]3C1CC2 (stereo partly shown)  7.97%
60. CCCNc1ccc(S(=O)(=O)N(CC)CC)cn1  8.07%
61. COc1ccc(NC(=O)CSc2nnc3n2CCCCC3)cc1  8.17%
62. Br.O=C(Nc1ccc(F)cc1)C1=CC(=O)N2CCN=C2S1  8.85%
63. CC1CCCCN1c1ncnc(N)c1[N+](=O)[O-] (stereo not shown)  9.32%
64. COc1ccc(C(=O)/C(=C/O)N=Nc2ccc(F)cc2)cc1  9.72%
65. Oc1ccccc1C=NCCCCCCN=Cc1ccccc1O  9.95%
66. Cn1nccc1C(=O)Nc1ccc(S(=O)(=O)N2CCCC2)cc1  10.5%
67. COc1cc(O)cc(O)c1C(=O)/C=C/c1ccccc1  10.6%
68. Cc1cccc(C(=O)NNC(=O)c2ccc(F)cc2)c1  10.9%
69. COc1cc(OC)cc(-c2oc3cccnc3c2C#CCCO)c1  11.5%
70. CCc1cccc(NC(=O)c2ccc(CNc3c(N4CCCC4)c(=O)c3=O)cc2)c1  11.8%
71. COc1ccnc(NCc2cccnc2)c1C#N  12.6%
72. COc1ccc(Cl)cc1C(=O)NCc1cn(C)nc1C  12.7%
73. COc1ccc(C(=O)NC2CCN(C(=S)Nc3ccccc3C)CC2)cc1  12.7%
74. O=C(O)c1cccc(-n2c(/C=C/c3ccccc3)nc3ccccc3c2=O)c1  12.8%
75. Cc1ccc(C(=O)NNC(=O)OC(C)(C)C)c(Cl)c1  13.1%
76. CCOc1ccc(N2CC(C(=O)Nc3ccc(N4CCOCC4)cc3)CC2=O)cc1 (stereo not shown)  13.9%
77. CC(C)COc1ccc(/C=C2/Sc3ccccc3C2=O)cc1  15.1%
78. CC(C)(C)c1ccc(-c2nc(O)c(CC(=O)O)s2)cc1  16.3%
79. O=S(=O)(O)c1cccc(N=Nc2c(O)ccc3ccccc23)c1  16.4%
80. CCN(Cc1cn2cccnc2n1)C1CCCCC1  16.5%
81. CC(=O)c1ccc(N2CCN(C(=O)Cn3c(=S)[nH]c4ncccc4c3=O)CC2)cc1  16.9%
82. COc1ccc(/C=N/NC(=O)c2ccccc2OC)cc1COc1ccc(C)cc1  17.6%
83. CCOC(=O)NC(=O)CSc1ccccn1  18.2%
84. CCC1(c2ccccc2)NC(=O)N(CC(=O)NCc2ccncc2)C1=O (stereo not shown)  18.5%
85. Cc1ccc(NCc2n[nH]c(=S)n2-c2cccc(Cl)c2)cc1  18.6%
86. CCOc1cccc(-c2c(C(=O)N/N=C/c3sccc3C)nnn2-c2nonc2N)c1  20.1%
87. COc1cccc(N(CC(=O)NCC2CCCO2)C(=O)CNS(=O)(=O)c2ccccc2)c1 (stereo not shown)  23.1%
88. Cl.O=C(O)c1cccc(Nc2nc(C(F)(F)F)nc3ccccc23)c1  40.7%
